Results on 31 sequences are retold here after PMC12820563, “FoxP3 forms a head-to-head dimer in vivo and stabilizes its multimerization on adjacent microsatellites”.

The other results are listed elsewhere or left out.

The target of the assay is T1, MBP-FoxP1dN (Mus musculus, UniProt P58462 326-579).
T1 sequence: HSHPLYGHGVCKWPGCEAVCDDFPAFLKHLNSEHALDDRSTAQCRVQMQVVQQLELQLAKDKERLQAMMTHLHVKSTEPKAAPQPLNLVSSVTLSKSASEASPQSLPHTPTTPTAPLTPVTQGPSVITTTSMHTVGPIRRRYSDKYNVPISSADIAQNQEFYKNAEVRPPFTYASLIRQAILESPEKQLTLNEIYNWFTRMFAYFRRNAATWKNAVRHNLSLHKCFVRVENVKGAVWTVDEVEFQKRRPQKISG
The assay can be described thus: PD-seq (MBP pull-down with sequencing); 20 mM Tris-HCl pH 7.5, 100 mM NaCl, 1.5 mM MgCl2, 0.4 uM protein, 0.1 uM dsDNA library, 30 min, room temperature, amylose pull-down; high values mean tight binding. The note with it: protein: recombinant; tags: His6-MBP; chain copies: 2; dsDNA, one strand shown. The method in brief:
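Protein and DNA were mixed at 0.4 µM and 0.1 µM and held for 30 min at room temperature in Tris pH 7.5 buffer with NaCl and MgCl2; the protein was a His6-MBP-tagged, N-terminally truncated mouse FoxP3 or FoxP1 fragment from E. coli, and the DNA a Klenow-filled double-stranded degenerate library. Amylose resin captured the complexes, which were washed three times. Binding is read as reads-per-million enrichment of pull-down versus input after Illumina sequencing, with replicates pooled.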
In the case of “GATGATTGTTCTCCCAGCTGATGAATTCGTCGGCTCGAGTAAACAAATTTTCCTAATCTTTCTGTTCAAGCGCCATCTAC”, the binding signal is 0.772 RPM ratio (pull-down/input). To “GATGATTGTTCTCCCAGCTGATGAATTAGAGGCTTCGAGTAAACAAATTTTCCTAATCTTTCTGTTCAAGCGCCATCTAC” belongs 0.965 RPM ratio (pull-down/input); to “GATGATTGTTCTCCCAGCTGATGAATTATACGCATCGAGTAAACAAATTTTCCTAATCTTTCTGTTCAAGCGCCATCTAC”, 1.21 RPM ratio (pull-down/input).

On to “GATGATTGTTCTCCCAGCTGATGAATTTTTATCGTCGAGTAAACAAATTTTCCTAATCTTTCTGTTCAAGCGCCATCTAC”, for which the binding signal is 1.14 RPM ratio (pull-down/input).

Take “GATGATTGTTCTCCCAGCTGATGAATTACTTTCGTCGAGTAAACAAATTTTCCTAATCTTTCTGTTCAAGCGCCATCTAC”: the binding signal is 0.988 RPM ratio (pull-down/input). The value for “GATGATTGTTCTCCCAGCTGATGAATTAGGGACCTCGAGTAAACAAATTTTCCTAATCTTTCTGTTCAAGCGCCATCTAC” was 0.777 RPM ratio (pull-down/input); that for “GATGATTGTTCTCCCAGCTGATGAATTATCAGACTCGAGTAAACAAATTTTCCTAATCTTTCTGTTCAAGCGCCATCTAC” was 0.844 RPM ratio (pull-down/input); that for “GATGATTGTTCTCCCAGCTGATGAATTACGGGAATCGAGTAAACAAATTTTCCTAATCTTTCTGTTCAAGCGCCATCTAC” was 1.04 RPM ratio (pull-down/input). Take “GATGATTGTTCTCCCAGCTGATGAATTCCCGCTGTCGAGTAAACAAATTTTCCTAATCTTTCTGTTCAAGCGCCATCTAC”: the binding signal was 0.872 RPM ratio (pull-down/input). For the sequence “GATGATTGTTCTCCCAGCTGATGAATTCCTGGCTTCGAGTAAACAAATTTTCCTAATCTTTCTGTTCAAGCGCCATCTAC”, the binding signal was 0.73 RPM ratio (pull-down/input). To “GATGATTGTTCTCCCAGCTGATGAATTTTTTGTCTCGAGTAAACAAATTTTCCTAATCTTTCTGTTCAAGCGCCATCTAC” belongs 0.905 RPM ratio (pull-down/input). In the case of “GATGATTGTTCTCCCAGCTGATGAATTACAGTCTTCGAGTAAACAAATTTTCCTAATCTTTCTGTTCAAGCGCCATCTAC”, the binding signal was 1.12 RPM ratio (pull-down/input).

Take “GATGATTGTTCTCCCAGCTGATGAATTTAGGTCCTCGAGTAAACAAATTTTCCTAATCTTTCTGTTCAAGCGCCATCTAC”: the binding signal is 0.858 RPM ratio (pull-down/input). For “GATGATTGTTCTCCCAGCTGATGAATTCGGAGGCTCGAGTAAACAAATTTTCCTAATCTTTCTGTTCAAGCGCCATCTAC”, the binding signal is 0.802 RPM ratio (pull-down/input). Regarding “GATGATTGTTCTCCCAGCTGATGAATTAGTATTGTCGAGTAAACAAATTTTCCTAATCTTTCTGTTCAAGCGCCATCTAC”, the binding signal is 2.55 RPM ratio (pull-down/input). To “GATGATTGTTCTCCCAGCTGATGAATTCTGCTAATCGAGTAAACAAATTTTCCTAATCTTTCTGTTCAAGCGCCATCTAC” belongs 0.985 RPM ratio (pull-down/input); to “GATGATTGTTCTCCCAGCTGATGAATTCCATTTTTCGAGTAAACAAATTTTCCTAATCTTTCTGTTCAAGCGCCATCTAC”, 0.853 RPM ratio (pull-down/input); to “GATGATTGTTCTCCCAGCTGATGAATTGATAAGTTCGAGTAAACAAATTTTCCTAATCTTTCTGTTCAAGCGCCATCTAC”, 1.11 RPM ratio (pull-down/input). The value for “GATGATTGTTCTCCCAGCTGATGAATTTCCCCCGTCGAGTAAACAAATTTTCCTAATCTTTCTGTTCAAGCGCCATCTAC” was 0.786 RPM ratio (pull-down/input); that for “GATGATTGTTCTCCCAGCTGATGAATTAGTCGACTCGAGTAAACAAATTTTCCTAATCTTTCTGTTCAAGCGCCATCTAC” was 0.912 RPM ratio (pull-down/input); that for “GATGATTGTTCTCCCAGCTGATGAATTGGCTAGCTCGAGTAAACAAATTTTCCTAATCTTTCTGTTCAAGCGCCATCTAC” was 0.808 RPM ratio (pull-down/input). The value for “GATGATTGTTCTCCCAGCTGATGAATTAGACTGGTCGAGTAAACAAATTTTCCTAATCTTTCTGTTCAAGCGCCATCTAC” was 0.848 RPM ratio (pull-down/input); that for “GATGATTGTTCTCCCAGCTGATGAATTGAGGGAATCGAGTAAACAAATTTTCCTAATCTTTCTGTTCAAGCGCCATCTAC” was 0.883 RPM ratio (pull-down/input); that for “GATGATTGTTCTCCCAGCTGATGAATTATGCGATTCGAGTAAACAAATTTTCCTAATCTTTCTGTTCAAGCGCCATCTAC” was 1.06 RPM ratio (pull-down/input). For the sequence “GATGATTGTTCTCCCAGCTGATGAATTAAAAGATTCGAGTAAACAAATTTTCCTAATCTTTCTGTTCAAGCGCCATCTAC”, the binding signal is 0.939 RPM ratio (pull-down/input). To “GATGATTGTTCTCCCAGCTGATGAATTAGCGGTGTCGAGTAAACAAATTTTCCTAATCTTTCTGTTCAAGCGCCATCTAC” belongs 0.861 RPM ratio (pull-down/input); to “GATGATTGTTCTCCCAGCTGATGAATTTGTCCGCTCGAGTAAACAAATTTTCCTAATCTTTCTGTTCAAGCGCCATCTAC”, 0.946 RPM ratio (pull-down/input); to “GATGATTGTTCTCCCAGCTGATGAATTGAACGTATCGAGTAAACAAATTTTCCTAATCTTTCTGTTCAAGCGCCATCTAC”, 0.969 RPM ratio (pull-down/input).

In the case of “GATGATTGTTCTCCCAGCTGATGAATTATTAATATCGAGTAAACAAATTTTCCTAATCTTTCTGTTCAAGCGCCATCTAC”, the binding signal is 1.39 RPM ratio (pull-down/input). Consider “GATGATTGTTCTCCCAGCTGATGAATTCGGGCCTTCGAGTAAACAAATTTTCCTAATCTTTCTGTTCAAGCGCCATCTAC”, for which the binding signal is 0.807 RPM ratio (pull-down/input). As for “GATGATTGTTCTCCCAGCTGATGAATTTAATAGATCGAGTAAACAAATTTTCCTAATCTTTCTGTTCAAGCGCCATCTAC”, the binding signal was 0.916 RPM ratio (pull-down/input).
